Results are given in words; binding and its absence hold for the method and conditions named. Some entries that bind do so weakly or less than the wild type. For some of these results: Sequences can lack the tags named with a protein.

By UniProt entry, the sequences of proteins in these tests, tags left out. Where a name states a change or a piece, a line headed by the entry shows the natural chain unless it says otherwise. Chains listed by the source or under a name are the forms on record and can include a tag or linker. Residues count along the entry.
UniProt P43146: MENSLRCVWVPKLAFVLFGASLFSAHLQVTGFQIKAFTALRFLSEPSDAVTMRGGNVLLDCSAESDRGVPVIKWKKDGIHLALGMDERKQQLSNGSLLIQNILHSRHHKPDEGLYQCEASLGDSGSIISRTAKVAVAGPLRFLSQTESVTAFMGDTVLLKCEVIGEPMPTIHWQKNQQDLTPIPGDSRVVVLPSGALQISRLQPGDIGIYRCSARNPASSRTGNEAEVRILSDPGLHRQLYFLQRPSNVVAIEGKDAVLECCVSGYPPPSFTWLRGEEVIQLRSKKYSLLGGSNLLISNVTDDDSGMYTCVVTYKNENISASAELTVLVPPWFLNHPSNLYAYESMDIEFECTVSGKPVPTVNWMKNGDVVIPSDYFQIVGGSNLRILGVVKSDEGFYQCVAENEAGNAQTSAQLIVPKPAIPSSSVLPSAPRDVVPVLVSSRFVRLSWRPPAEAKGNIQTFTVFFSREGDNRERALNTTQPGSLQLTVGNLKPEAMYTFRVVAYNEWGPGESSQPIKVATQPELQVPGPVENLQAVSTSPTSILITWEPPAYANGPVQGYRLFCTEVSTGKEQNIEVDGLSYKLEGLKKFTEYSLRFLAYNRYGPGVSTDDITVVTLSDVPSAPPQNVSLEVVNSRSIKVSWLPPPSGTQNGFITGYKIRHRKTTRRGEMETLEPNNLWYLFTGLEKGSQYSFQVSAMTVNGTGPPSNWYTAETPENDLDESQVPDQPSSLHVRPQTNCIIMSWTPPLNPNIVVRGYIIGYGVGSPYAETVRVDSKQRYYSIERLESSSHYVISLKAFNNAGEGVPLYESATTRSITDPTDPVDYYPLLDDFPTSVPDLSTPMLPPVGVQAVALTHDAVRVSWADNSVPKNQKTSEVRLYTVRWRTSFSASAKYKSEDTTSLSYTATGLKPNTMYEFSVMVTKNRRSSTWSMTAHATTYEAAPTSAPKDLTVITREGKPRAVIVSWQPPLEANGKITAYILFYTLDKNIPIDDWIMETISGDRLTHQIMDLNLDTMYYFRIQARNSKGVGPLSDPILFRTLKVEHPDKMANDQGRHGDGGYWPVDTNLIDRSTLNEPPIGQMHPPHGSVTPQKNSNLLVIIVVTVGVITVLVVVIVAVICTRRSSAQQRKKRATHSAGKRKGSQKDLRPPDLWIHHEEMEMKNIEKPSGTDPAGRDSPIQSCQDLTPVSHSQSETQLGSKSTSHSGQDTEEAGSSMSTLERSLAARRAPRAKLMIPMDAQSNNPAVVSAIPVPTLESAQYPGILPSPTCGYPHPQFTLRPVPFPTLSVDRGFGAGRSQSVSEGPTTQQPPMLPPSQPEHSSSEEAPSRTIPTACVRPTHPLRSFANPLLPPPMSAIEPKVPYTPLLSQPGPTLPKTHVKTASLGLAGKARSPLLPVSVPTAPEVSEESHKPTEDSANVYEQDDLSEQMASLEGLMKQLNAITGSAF
DCC (cDNA transfected into COS-7 cells for the AP binding assay): residues 26-1447 of P43146
Flag-DCC full-length (H26-I1442): residues 26-1442 of P43146
extracellular domain of human DCC (M1-N1097) with a C-terminal Fc tag: residues 26-1097 of P43146
UniProt Q9NTU7, residues 28-201: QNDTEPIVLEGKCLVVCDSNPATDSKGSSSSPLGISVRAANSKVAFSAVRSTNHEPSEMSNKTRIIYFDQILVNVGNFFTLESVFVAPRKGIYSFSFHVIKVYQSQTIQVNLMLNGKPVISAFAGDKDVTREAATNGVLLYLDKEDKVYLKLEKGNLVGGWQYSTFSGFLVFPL
UniProt P23435, residues 22-193: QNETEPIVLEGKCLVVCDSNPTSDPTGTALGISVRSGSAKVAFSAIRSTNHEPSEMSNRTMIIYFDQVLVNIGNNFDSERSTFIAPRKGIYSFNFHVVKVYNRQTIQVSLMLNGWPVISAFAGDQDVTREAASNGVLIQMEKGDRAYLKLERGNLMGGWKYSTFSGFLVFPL
UniProt Q8IUK8, residues 52-224: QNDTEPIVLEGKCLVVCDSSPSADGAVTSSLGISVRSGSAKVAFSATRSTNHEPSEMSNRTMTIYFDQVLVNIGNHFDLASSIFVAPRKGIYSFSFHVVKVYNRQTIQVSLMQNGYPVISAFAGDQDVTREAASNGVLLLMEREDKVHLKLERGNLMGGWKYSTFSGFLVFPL
UniProt O95185, residues 41-380: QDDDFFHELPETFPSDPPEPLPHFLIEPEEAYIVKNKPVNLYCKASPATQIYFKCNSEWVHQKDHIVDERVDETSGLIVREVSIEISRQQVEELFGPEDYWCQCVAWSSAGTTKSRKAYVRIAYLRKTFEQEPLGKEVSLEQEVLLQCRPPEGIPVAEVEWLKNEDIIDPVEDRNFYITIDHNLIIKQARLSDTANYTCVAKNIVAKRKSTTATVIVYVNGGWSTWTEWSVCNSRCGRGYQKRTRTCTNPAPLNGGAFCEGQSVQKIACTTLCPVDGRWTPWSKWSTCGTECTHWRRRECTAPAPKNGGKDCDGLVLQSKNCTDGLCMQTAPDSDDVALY
UniProt Q6UW01, residues 33-205: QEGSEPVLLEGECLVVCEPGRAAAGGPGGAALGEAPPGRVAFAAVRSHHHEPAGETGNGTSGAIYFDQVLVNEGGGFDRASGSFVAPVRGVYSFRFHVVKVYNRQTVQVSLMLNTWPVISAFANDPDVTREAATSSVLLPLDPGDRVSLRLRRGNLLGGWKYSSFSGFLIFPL

The target in assay [1] is DCC (cDNA transfected into COS-7 cells for the AP binding assay) (human) (UniProt P43146). As to the kind of experiment: alkaline phosphatase (AP) fusion protein binding to transfected cells; COS-7 cells transfected with DCC or NgR; 20 nM AP, CBLN4-AP or Nogo 66-AP from conditioned media, 90 min, room temperature, binding buffer with 2 µg/ml heparin; NBT/BCIP development.

The target in a further assay is T1, Nogo receptor (NgR) (UniProt Q9BZR6).
T1 sequence: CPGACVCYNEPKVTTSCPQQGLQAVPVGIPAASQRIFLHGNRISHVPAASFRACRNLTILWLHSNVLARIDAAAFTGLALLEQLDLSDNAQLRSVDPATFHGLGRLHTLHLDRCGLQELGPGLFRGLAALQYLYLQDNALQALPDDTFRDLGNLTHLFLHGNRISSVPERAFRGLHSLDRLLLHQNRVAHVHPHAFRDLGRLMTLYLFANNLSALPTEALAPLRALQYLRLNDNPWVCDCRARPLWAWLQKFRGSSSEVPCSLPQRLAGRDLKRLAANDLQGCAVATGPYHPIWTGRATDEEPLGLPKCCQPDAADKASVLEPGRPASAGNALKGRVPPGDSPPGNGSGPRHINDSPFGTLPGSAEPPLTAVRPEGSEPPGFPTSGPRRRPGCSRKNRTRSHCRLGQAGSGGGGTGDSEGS
The description is as above.

The target of assay [2] is extracellular domain of human DCC (M1-N1097) with a C-terminal Fc tag (human) (UniProt P43146). Put plainly: SPR; Biacore 3000, 25°C, CM5 chip, DCC-Fc or Robo3-Fc amine-coupled; CBLN family members injected at 10 µg/ml for 3 min, 30 µl/min, HBS-P (0.01 M HEPES pH 7.4, 0.15 M NaCl, 0.005% P20); both purified.
Assay [3] addresses T2, extracellular region of Robo3 fused to Fc (UniProt Q96MS0).
T2 sequence: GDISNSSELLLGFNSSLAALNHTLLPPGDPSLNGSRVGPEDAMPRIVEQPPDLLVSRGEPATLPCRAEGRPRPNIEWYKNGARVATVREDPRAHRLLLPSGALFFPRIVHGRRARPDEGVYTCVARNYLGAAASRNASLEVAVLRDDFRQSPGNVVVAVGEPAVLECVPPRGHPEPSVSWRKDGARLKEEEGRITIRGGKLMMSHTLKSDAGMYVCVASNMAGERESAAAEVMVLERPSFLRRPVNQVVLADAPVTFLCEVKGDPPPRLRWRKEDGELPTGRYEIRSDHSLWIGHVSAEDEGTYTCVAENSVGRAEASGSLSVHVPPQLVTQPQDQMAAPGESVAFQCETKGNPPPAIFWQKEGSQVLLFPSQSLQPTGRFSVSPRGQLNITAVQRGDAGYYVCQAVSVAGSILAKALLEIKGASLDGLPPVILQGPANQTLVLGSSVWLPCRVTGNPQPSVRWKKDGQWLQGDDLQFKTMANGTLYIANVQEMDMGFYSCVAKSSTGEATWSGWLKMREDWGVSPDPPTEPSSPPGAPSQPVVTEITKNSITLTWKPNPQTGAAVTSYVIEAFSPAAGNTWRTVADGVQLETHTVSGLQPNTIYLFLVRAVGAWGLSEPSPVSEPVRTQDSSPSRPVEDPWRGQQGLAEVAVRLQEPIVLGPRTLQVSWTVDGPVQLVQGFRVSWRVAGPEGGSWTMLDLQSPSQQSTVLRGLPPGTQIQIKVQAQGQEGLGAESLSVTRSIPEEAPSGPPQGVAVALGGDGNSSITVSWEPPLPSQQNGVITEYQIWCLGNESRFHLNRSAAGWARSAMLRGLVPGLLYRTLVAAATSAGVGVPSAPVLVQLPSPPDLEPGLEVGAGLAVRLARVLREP
The assay is described as above.

In assay [4] the target is Flag-DCC full-length (H26-I1442) (human) (UniProt P43146). As to the kind of experiment: flow cytometry on cells; HEK293T cells transiently transfected with Flag-tagged DCC against non-transfected cells; proteins at 10 µg/ml for 30 min, PBS with 2% FBS, 4°C; detected with anti-human IgG or anti-gD and labeled secondary antibody; only the binder purified.
The target is the same in assay [5]. As to the kind of experiment: radioligand binding; competition: fixed concentration of 125I CBLN4-Fc with increasing unlabeled gD-Netrin-1 on DCC expressing HEK293T cells; 2 h, room temperature; only the binder purified.
The target is the same in assay [6]. As to the kind of experiment: radioligand binding; blocking: HEK293T cells expressing DCC or control cells pre-blocked with unlabeled gD-Netrin-1 (1 µM) or CBLN4-Fc (2 µM) for 1.5 h on ice, then 125I CBLN4-Fc (300 pM) or 125I gD-Netrin-1 (52 pM) for 1 h at 4°C; only the binder purified.

“CBLN4-AP (from UniProt Q9NTU7 28-201) (ligand)”: the binding entry in assay [1] was “binds”; with Nogo receptor (NgR), “no binding (tested: 20 nM)”.

In the case of “Full-length N-terminally HA-tagged CBLN1 (from UniProt P23435 22-193)”, the binding result in assay [2] and in assay [3] was “no binding (tested: 10 µg/ml)” each time.

“Full-length N-terminally HA-tagged CBLN2 (from UniProt Q8IUK8 52-224)”: the binding entry in assay [2] and in assay [3] was “no binding (tested: 10 µg/ml)” in each case.

For “UNC5C-Fc (from UniProt O95185 41-380) (Fc fusion)”, the binding result in assay [4] was “no binding (tested: 10 µg/ml)”.

With “full length CBLN3-Fc (from UniProt Q6UW01 33-205) (Fc fusion)”, the binding entry in assay [2] and in assay [3] was “no binding (tested: 10 µg/ml)” in each case.

As for “full length CBLN4 C-terminal His (from UniProt Q9NTU7 28-201) (ligand)”, the binding entry in assay [3] is on record as “no binding (tested: 10 µg/ml)”.

In the case of “human CBLN4 (M1-L201) with a C-terminal Fc tag (from UniProt Q9NTU7 28-201) (Fc fusion)”, the binding entry in assay [5], in assay [6] and in assay [4] was “binds” each time.

Source of the values: publication PMC3882260.
